# Reference: PubChem BioAssay AID463173 (ICCB-Longwood Screening Facility, Harvard Medical School, 2010)
# “And” between values parts separate entries of the source, which are not always exact repeats. Equal entries are not always repeated. Out of some 52,000 compounds screened, about 1,700 (3.3%) were called active. Cut-off read from the data, not from the text of the source: active = survival mostly below about 52% (no sharp cut-off); inactive = mostly above about 56%. The list shows a part of the results.
# System: Wild type
# Experiment: S. aureus survival, RN4220 and DeltatarO strains – OD600, teichoic acid synthesis inhibitors, primary screen (AID 463173)
# Conditions: S. aureus RN4220 wild type/DeltatarO growth, OD600, 18 h, active compounds read low, screened at 18.75 µg/mL (by protocol)
row,Structure (SMILES),survival
1,NC(=O)COc1cccc(-n2cnnn2)c1,inactive: 101%
2,CCOc1ccc(NC(=O)c2ccc(F)c(S(=O)(=O)N(Cc3ccc(C(=O)OC)cc3)Cc3ccc(OC)c(OC)c3)c2)cc1,inactive: 60%
3,O=C(Cn1cc(C(=O)c2ccco2)c2ccccc21)Nc1ccccc1,inactive: 115% and inactive: 54%
4,CCOc1ccc(N2CC(C)Cn3c2nc2c3c(=O)n(Cc3c(F)cccc3Cl)c(=O)n2C)cc1 (configuration not stated),inactive: 82%
5,CN(C)c1ncc(C(=O)NCc2ccc(Cl)cc2)cn1,inactive: 74%
6,COc1ccccc1NC(=O)C1=C(C)Nc2nc3ccccc3n2C1c1ccccc1Cl (configuration not stated),inactive: 63%
7,Cc1nc(N)nc2c1C(=O)CC(c1ccccc1)C2 (configuration not stated),inactive: 98%
8,Cc1ccc(-c2nnn3c2nc(NC2CCC(C)CC2)c2ccccc23)cc1 (configuration not stated),active: 4%
9,Cc1cc(OCC(=O)N2CCC(c3nc4ccccc4s3)CC2)ccc1Cl,inactive: 18%
10,O=C(CSc1ncc(-c2ccccc2)[nH]1)Nc1cccc(Br)c1,inactive: 13%
11,CCOCCc1nnc(NC(=O)C(=O)c2cc(C)n(-c3ccc(Cl)cc3)c2C)s1,inactive: 91%
12,Cc1cc2n(n1)CCCN2C(=O)Nc1ccc(F)c(Cl)c1,inactive: 71%
13,CCN(Cc1ccccc1)C(c1cccnc1)c1nnnn1Cc1ccccc1 (configuration not stated),inactive: 106%
14,COC(=O)CN1C(C(=O)c2ccccc2)=C(OC(=O)c2ccc(F)cc2)c2ccccc2S1(=O)=O,inactive: 88%
15,Cc1ccc(S(=O)(=O)c2cnc(SCC(=O)Nc3ccc4c(c3)OCCO4)[nH]c2=O)cc1C,inactive: 85%
16,COc1cccc(NC(=O)c2ccc(CN3CCN(c4ccccc4)CC3)cc2)c1,inactive: 122%
17,COc1cccc(-c2nc3c(C#N)c[nH]n3c2NC2CCCC2)c1OC,inactive: 79%
18,CC1CCCCN1C(=O)c1ccc2c(c1)N(Cc1ccc(F)cc1)C(=O)c1ccccc1S2(=O)=O (configuration not stated),inactive: 87%
19,CCN(CCCNC(=O)c1cc2c(=O)n(CC)c3ccccc3c2s1)Cc1ccccc1,inactive: 85%
20,COc1cccc(-n2c(C)nc3cc(C(=O)O)ccc32)c1,inactive: 143%
21,COc1cc2nc(NC(=O)c3ccc(S(=O)(=O)N4CCc5ccccc54)cc3)sc2cc1OC,inactive: 75%
22,CCc1ccccc1NC(=O)c1sc(-n2nc(C)c(Cc3ccccc3)c2C)nc1C,inactive: 97%

row,Structure (SMILES),survival
1,COc1ccc(CNC(=O)C2CCN(S(=O)(=O)c3ccc4c(c3)CCCN4C(C)=O)CC2)cc1,inactive: 77%
2,Cc1ccc(C)c(CSc2nnc3[nH]c(=O)cc(-c4ccccc4)n23)c1,inactive: 86%
3,CCOC(=O)c1c(S(=O)(=O)NCC(=O)NCc2ccccc2Cl)c(C)n(C)c1C,inactive: 89%
4,CCCn1cc(S(=O)(=O)c2cc(C)ccc2C)c(=O)c2cc(F)c(N3CCN(CC)CC3)cc21,inactive: 89%
5,Cc1cccc(C)c1-n1ncc(C(=O)N2CCN(c3ncccn3)CC2)c1C1CCN(C(=O)OC(C)(C)C)CC1,inactive: 76%
6,Cc1cccc(NC(=O)C2CCN(S(=O)(=O)c3ccc4c(c3)CCCN4C(=O)C3CCC3)CC2)c1,inactive: 74%
7,Cn1c(COc2ccccc2)n[nH]c1=S,inactive: 107%
8,COCCCn1c(=O)c2sccc2n2c(CCCC(=O)NC3CCC(C)CC3)nnc12 (configuration not stated),inactive: 98%
9,COc1ccc(NC(=O)CSc2cn(CCNC(=O)c3c(F)cccc3F)c3ccccc23)cc1,inactive: 81%
10,O=S(=O)(NCc1ccc2c(c1)OCO2)c1cccc2nsnc12,inactive: 104%
11,COc1ccc(C(=O)N(Cc2ccc(N(C)C)cc2)CC2CCCO2)cc1 (configuration not stated),inactive: 84%
12,COc1cc(NC(=O)CSc2nc(-c3ccc(C(C)C)cc3)no2)cc(OC)c1,inactive: 90%
13,CCCN1CCN(CCCNC(=O)Cn2nc(C)n3c(cc4c(OC)cccc43)c2=O)CC1,inactive: 90%
14,Cc1ccc(NC(=O)CSc2nc3ccc(NC(=O)CCc4ccccc4)cc3s2)cc1,inactive: 92%
15,O=c1[nH]cc(COCC(F)(F)C(F)F)c(=O)[nH]1,inactive: 111%
16,CCN1CCN(Cc2c(O)ccc3c(=O)c(Oc4ccccc4C(C)C)c(C(F)(F)F)oc23)CC1,inactive: 78%
17,O=C(N1CCCC1)N1CCC(c2ccc3c(c2)OCO3)CC1,inactive: 112%
18,CCN(C(=O)Cn1c(=O)n(Cc2ccccc2)c(=O)c2c1c1cc(OC)ccc1n2C)c1ccccc1,inactive: 71%
19,COc1ccc(-c2noc(-c3ccc(NC4CCCC4)c([N+](=O)[O-])c3)n2)cc1OC,inactive: 86%
20,Cc1ccccc1CNC(=O)c1ccc2nc(C(C)C)oc2c1,inactive: 92%
21,COc1cc(Cl)c(C)cc1NC(c1ccccc1)c1nnc(-c2ccccc2Cl)o1 (configuration not stated),inactive: 75%
22,Cc1ccc(CNC(=O)c2cc3ccc4cccnc4c3[nH]2)cc1,active: 0%

row,Structure (SMILES),survival
1,COc1ccc(C2=Nc3ccc(OC(F)(F)F)cc3NC(c3cccnc3)=N2)cc1,inactive: 78%
2,Cc1ccc(C)c(N2CCN(S(=O)(=O)c3cn(C)c(C)n3)CC2)c1,inactive: 68%
3,CC(=O)Nc1ccc2nc(NC(=O)CS(=O)(=O)c3ccc(C)cc3)sc2c1,inactive: 72%
4,CCC(C)n1c(=N)c(C(=O)NC2CCCCC2)cc2c(=O)n3ccccc3nc21 (configuration not stated),inactive: 89%
5,Cc1ccc2c(=O)cc(C(=O)Nc3sc4c(c3C(=O)NCC3CCCO3)CCCC4)oc2c1C (configuration not stated),inactive: 84%
6,O=C(Nc1nc(-c2ccc3c(c2)CCN3C(=O)C2CCCCC2)cs1)c1ccco1,inactive: 87%
7,Cc1ccc(Cl)cc1NC(=O)CCc1c(C)nc2c3cccnc3nn2c1C,inactive: 96%
8,O=C(c1cccc(Cl)c1)N1c2ncnn2C2(CCCCC2)[C@@H]2CCCC[C@@H]21,inactive: 75%
9,Cc1ccc2c(c1)N(C(=O)N1CCC(C(=O)NCCc3ccccc3)CC1)CC(C)O2 (configuration not stated),inactive: 86%
10,COc1ccc(-c2ccc3c(N)c(C(=O)NCc4ccc(C)cc4)sc3n2)cc1,inactive: 101%
11,CC(C)(C)OC(=O)N1CCC(c2c(C(=O)NCCN3CCOCC3)cnn2-c2ccc(F)cc2)CC1,inactive: 89%
12,CSc1nnc(-c2ccc(S(=O)(=O)N3CCCC3)cc2)n1C,inactive: 101%
13,O=C(COc1ccc(F)cc1)Nc1nnc(SCc2cc(=O)n3ccccc3n2)s1,inactive: 70%
14,CCOc1ccc(-c2nonc2NC(=O)c2oc3cc(C)ccc3c2C)cc1OCC,inactive: 112%
15,COc1ccc(C)cc1NC(=O)C(Cc1ccccc1)NS(=O)(=O)c1ccc(Br)s1 (configuration not stated),inactive: 132%
16,COc1ccc(N2Cc3cccc(C(=O)Nc4ccc(Cl)cc4)c3C2=O)cc1,inactive: 87%
17,Cc1cc(Cl)ccc1NC(=O)CN1C(=O)COc2ccc(S(=O)(=O)Nc3ccccc3)cc21,inactive: 87%
18,O=C(Nc1nc2n(n1)C(c1ccccc1)C=C(c1ccc(Cl)cc1)N2)c1ccco1 (configuration not stated),inactive: 54%
19,COc1cccc(Cn2c(SCc3ccc(C(=O)N4CCCCC4)cc3)nc3ccncc32)c1,inactive: 79%
20,COc1ccc(CCNc2nc(C)cc(C)n2)cc1OC,inactive: 122%
21,CCOC(=O)C1CCCN(C(=O)c2ccc3c(c2)sc2nc(-c4ccc(C)cc4C)cn23)C1 (configuration not stated),inactive: 58%
22,COc1ccc(N(CCC#N)S(=O)(=O)c2ccc(Cl)cc2)cc1,inactive: 102%

row,Structure (SMILES),survival
1,Cc1ccc(CN(Cc2ccco2)C(=O)COc2cccc(C)c2C)o1,inactive: 81%
2,COc1cc(NC(=O)c2ccc3c(Cl)c4c(nc3c2)CCC4)cc(OC)c1OC,inactive: 76%
3,CC(=O)c1cccc(-n2c(=O)c3c4c(sc3n(CC(=O)Nc3ccccc3F)c2=O)CN(C(C)=O)CC4)c1,inactive: 130%
4,O=C(COc1ccc([N+](=O)[O-])cc1)N1CCC(c2nc3ccccc3s2)CC1,inactive: 84%
5,CCOC(=O)Cn1c(=O)c2c(nc(N3CCOCC3)n2Cc2ccccc2)n(C)c1=O,inactive: 84%
6,CC(C)(CC(=O)OCC(=O)Nc1ccccc1F)CC1=NS(=O)(=O)c2ccccc2N1,inactive: 60%
7,CCOc1ccc(N(C(C)C(=O)NCCSc2ccc(Cl)cc2)S(C)(=O)=O)cc1 (configuration not stated),inactive: 73%
8,CCc1ccc(CNC(=O)C2CCN(c3nnc(C)c4c(C)n(-c5ccc(C)cc5)nc34)CC2)cc1,inactive: 74%
9,Cc1cc(NC(=O)c2cc(-c3ccc(Br)cc3)on2)nn1Cc1ccc(Cl)cc1,inactive: 141%
10,CCOC(=O)C1CCN(c2cc(C)nc3c(-c4ccccc4OC)c(C)nn23)CC1,inactive: 82%
11,O=C(Cn1nc(-c2ccccc2)c2cnc3ccc(F)cc3c21)NC1CCCC1,inactive: 75%
12,O=C(Nc1nnc(S(=O)(=O)N2CCCCCC2)s1)c1ccccc1F,inactive: 50%
13,COc1ccc(NCc2nnc(SCC(=O)c3ccc(OC)cc3)n2C)cc1,inactive: 83%
14,Cc1nc(N2CCOCC2)c2c(C(=O)N(C)Cc3ccccc3)c(C)oc2n1,inactive: 128%
15,CCOc1cccc2sc(N3CCN(C(=O)C(C)(C)C)CC3)nc12,inactive: 98%
16,CCCCNC(=O)Cn1c(-c2ccc(C)cc2)noc1=O,inactive: 114%
17,Cc1cc(NC(=O)CSc2nc3c([nH]c4ccccc43)c(=O)n2-c2ccccc2F)no1,inactive: 78%
18,CCCCNc1nc(Oc2ccc(=O)n(-c3ccccc3)n2)nc(N(CC)CC)n1,inactive: 98%
19,Cc1ccc(-c2nnc(SCC(=O)N3CCCc4ccccc43)o2)cc1,inactive: 65%
20,Cc1ccc(C(=O)c2oc3ccccc3c2NC(=O)c2cc(=O)c3cc(C)ccc3o2)cc1,inactive: 109%
21,COc1cccc(Cn2ccn(-c3ccc(F)cc3)c(=O)c2=O)c1,inactive: 83%
